Measurements: EPA's CvTdb concentration-time database
The source gives many values for each of these; only a part stands here.

What was measured:
Rat [1] = experiment: concentration in brain after dosing; conditions: 2 min; dosed: 2-Methyltetrahydrofuran; 10 mg/kg; oral; Female; F344
Rat [2] = experiment: concentration in brain after dosing; conditions: 2 h; dosed: 2-Methyltetrahydrofuran; 10 mg/kg; oral; Female; F344
Rat [3] = experiment: concentration in brain after dosing; conditions: 0.75 h; dosed: 2-Methyltetrahydrofuran; 30 mg/kg; oral; Male; F344
Rat [4] = experiment: concentration in plasma after dosing; conditions: 10 min; dosed: 2-Methyltetrahydrofuran; 400 mg/kg; oral; Male; F344
Rat [5] = experiment: concentration in plasma after dosing; conditions: 5 min; dosed: 2-Methyltetrahydrofuran; 10 mg/kg; iv; Female; F344
Rat [6] = experiment: concentration in plasma after dosing; conditions: 0.25 h; dosed: 2-Methyltetrahydrofuran; 30 mg/kg; oral; Male; F344
Rat [7] = experiment: concentration in brain after dosing; conditions: 1.5 h; dosed: 2-Methyltetrahydrofuran; 10 mg/kg; oral; Male; F344
Rat [8] = experiment: concentration in brain after dosing; conditions: 0.75 h; dosed: 2-Methyltetrahydrofuran; 10 mg/kg; oral; Male; F344
Rat [9] = experiment: concentration in plasma after dosing; conditions: 1.5 h; dosed: 2-Methyltetrahydrofuran; 10 mg/kg; oral; Male; F344
Rat [10] = experiment: concentration in brain after dosing; conditions: 4 h; dosed: 2-Methyltetrahydrofuran; 100 mg/kg; oral; Female; Harlan Sprague Dawley
Rat [11] = experiment: concentration in plasma after dosing; conditions: 0.75 h; dosed: 2-Methyltetrahydrofuran; 100 mg/kg; oral; Female; Harlan Sprague Dawley
Rat [12] = experiment: concentration in plasma after dosing; conditions: 10 min; dosed: 2-Methyltetrahydrofuran; 10 mg/kg; oral; Male; F344
Rat [13] = experiment: concentration in plasma after dosing; conditions: 20 min; dosed: 2-Methyltetrahydrofuran; 10 mg/kg; iv; Female; F344
Rat [14] = experiment: concentration in plasma after dosing; conditions: 8 min; dosed: 2-Methyltetrahydrofuran; 10 mg/kg; oral; Male; F344
Rat [15] = experiment: concentration in brain after dosing; conditions: 10 min; dosed: 2-Methyltetrahydrofuran; 10 mg/kg; oral; Male; F344
Rat [16] = experiment: concentration in plasma after dosing; conditions: 20 min; dosed: 2-Methyltetrahydrofuran; 10 mg/kg; iv; Male; F344
Rat [17] = experiment: concentration in plasma after dosing; conditions: 20 min; dosed: 2-Methyltetrahydrofuran; 10 mg/kg; oral; Female; F344
Rat [18] = experiment: concentration in plasma after dosing; conditions: 0.75 h; dosed: 2-Methyltetrahydrofuran; 10 mg/kg; oral; Male; F344
Rat [19] = experiment: concentration in brain after dosing; conditions: 4 min; dosed: 2-Methyltetrahydrofuran; 10 mg/kg; oral; Male; F344
Rat [20] = experiment: concentration in plasma after dosing; conditions: 40 min; dosed: Bromochloroacetic acid; 10 mg/kg; iv; Male; F344
Rat [21] = experiment: concentration in plasma after dosing; conditions: 10 min; dosed: Bromochloroacetic acid; 10 mg/kg; iv; Male; F344
Rat [22] = experiment: concentration in plasma after dosing; conditions: 20 min; dosed: Bromochloroacetic acid; 10 mg/kg; iv; Male; F344
Rat [23] = experiment: concentration in plasma after dosing; conditions: dosed: Fluorotelomer alcohol 8+2, 48 mg/kg, oral, Male, Harlan Sprague Dawley
Rat [24] = experiment: concentration in plasma after dosing; conditions: dosed: Fluorotelomer alcohol 8+2, 160 mg/kg, oral, Female, Harlan Sprague Dawley
Rat [25] = experiment: concentration in plasma after dosing; conditions: dosed: Fluorotelomer alcohol 8+2, 40 mg/kg, oral, Female, Harlan Sprague Dawley
Rat [26] = experiment: concentration in plasma after dosing; conditions: dosed: Fluorotelomer alcohol 8+2, 40 mg/kg, oral, Female, Harlan Sprague Dawley; remark: listed apart in the source
Rat [27] = experiment: concentration in plasma after dosing; conditions: 12 h; dosed: Fluorotelomer alcohol 8+2; 80 mg/kg; oral; Female; Harlan Sprague Dawley
Rat [28] = experiment: concentration in plasma after dosing; conditions: dosed: Formamide, 300 mg/kg, oral, Female, Harlan Sprague Dawley
Rat [29] = experiment: concentration in plasma after dosing; conditions: dosed: Formamide, 36 mg/kg, oral, Female, Harlan Sprague Dawley
Rat [30] = experiment: concentration in plasma after dosing; conditions: dosed: Formamide, 300 mg/kg, oral, Female, F344
Rat [31] = experiment: concentration in plasma after dosing; conditions: dosed: Formamide, 36 mg/kg, oral, Female, Harlan Sprague Dawley; remark: listed apart in the source
Rat [32] = experiment: concentration in plasma after dosing; conditions: dosed: Formamide, 600 mg/kg, oral, Female, Harlan Sprague Dawley
Rat [33] = experiment: concentration in plasma after dosing; conditions: dosed: Formamide, 300 mg/kg, oral, Female, Harlan Sprague Dawley; remark: listed apart in the source
Rat [34] = experiment: concentration in plasma after dosing; conditions: 0.25 h; dosed: Pyridine; 10 mg/kg; iv; Male; Harlan Sprague Dawley
Rat [35] = experiment: concentration in plasma after dosing; conditions: 40 min; dosed: Pyridine; 200 mg/kg; oral; Female; Harlan Sprague Dawley
Rat [36] = experiment: concentration in plasma after dosing; conditions: 40 min; dosed: Pyridine; 200 mg/kg; oral; Female; F344
Rat [37] = experiment: concentration in plasma after dosing; conditions: 4 h; dosed: Pyridine; 50 mg/kg; oral; Female; F344
Rat [38] = experiment: concentration in plasma after dosing; conditions: 5 h; dosed: Pyridine; 200 mg/kg; oral; Female; Harlan Sprague Dawley
Rat [39] = experiment: concentration in plasma after dosing; conditions: 10 min; dosed: Pyridine; 50 mg/kg; oral; Female; F344

CC1CCCO1 (centres undefined) [2-Methyltetrahydrofuran]
Conditions	concentration in brain [µg/g]	concentration in plasma [ng/mL]
Rat [1]	2.14	–
Rat [2]	0.0558	–
Rat [3]	10.8	–
Rat [4]	–	186000
Rat [5]	–	11600
Rat [6]	–	16200
Rat [7]	0.293	–
Rat [8]	0.809	–
Rat [9]	–	517
Rat [10]	10.6	–
Rat [11]	–	47200
Rat [12]	–	4650
Rat [13]	–	6380
Rat [14]	–	3150
Rat [15]	3.09	–
Rat [16]	–	7190
Rat [17]	–	2990
Rat [18]	–	1680
Rat [19]	3.27	–

O=C(O)C(Cl)Br (centres undefined) [Bromochloroacetic acid]
Conditions	concentration in plasma [ng/mL]
Rat [20]	201
Rat [21]	5710
Rat [22]	1620

OCCC(F)(F)C(F)(F)C(F)(F)C(F)(F)C(F)(F)C(F)(F)C(F)(F)C(F)(F)F [Fluorotelomer alcohol 8+2]
Conditions	concentration in plasma [ng/mL]
Rat [23], 0.5 h	641
Rat [23], 9 h	111
Rat [24], 0.25 h	147
Rat [24], 6 h	1610
Rat [25], 0.75 h	1130
Rat [25], 12 h	36.2
Rat [26], 0.75 h	688
Rat [26], 12 h	81.6

Conditions	concentration in plasma [ng/mL]
Rat [27]	39.5

NC=O [Formamide]
Conditions	concentration in plasma [ng/mL]
Rat [28], 1.5 h	242000
Rat [28], 30 h	99200
Rat [29], 2 h	52500
Rat [29], 5 min	9000
Rat [30], 10 min	58600
Rat [30], 20 h	164000
Rat [31], 10 min	20600
Rat [31], 20 h	17900
Rat [32], 2 h	558000
Rat [32], 5 min	164000
Rat [33], 8 h	407000
Rat [33], 12 h	335000

c1ccncc1 [Pyridine]
Conditions	concentration in plasma [ng/mL]
Rat [34]	4180
Rat [35]	104000
Rat [36]	108000
Rat [37]	16300
Rat [38]	83900
Rat [39]	30200
